Source: the RNAGym collection of RNA variant scans (doi:10.7554/elife.90254)
Read counts are not given, so values of variants with three or more changes are uncertain.

B1: LINE1-full (parent)
chain: UACGUAGGUGGUUUUCCCCUGAUAGUGCUAAGGGGGCCUGGAAGUUUGGACUGGGCAGAGCUCAACACAGCGUGGCAAAGUGGCUGUGGCUAGACUGCCUCUCUGGAUUCCUCGUCACUCAGCAGGGCAUCUCUGAGAGAAAUGCC

Variants of: B1
Assay: self-cleavage, relative activity (ratio to wild type); higher = more cleavage; in vitro, sequencing; the parent is a self-cleaving ribozyme
A67G C120U U132C showed a self-cleavage of 0.61.
Variant A69U U104C U115A has a self-cleavage of 0.23.
Variant A67U G72A U119A has a self-cleavage of 0.09.
For U73G A79G U85A A92G U143A, the self-cleavage was 0.
A65U A69G U109C showed a self-cleavage of 0.09.
G72A A79G U87C showed a self-cleavage of 0.09.
Variant A69G A117U U143A has a self-cleavage of 0.54.
A67G U85A A124G A142G gave a self-cleavage of 0.
In the case of G75A G82A U132A, the self-cleavage is reported as 1.3.
C66U A117G C123U showed a self-cleavage of 0.03.
With U73A U91G U104A A124G U134C the self-cleavage was 0.
For U73A A78G A79C, the self-cleavage was 1.17.
For A65G U96A G114A A140G, the self-cleavage was 0.
With C71G C84U U134C A142G the self-cleavage was 0.03.
In the case of A67U U73G A138G, the self-cleavage is reported as 0.12.
A69U A94U C110U A136U showed a self-cleavage of 0.01.
Variant A65U U73A U115C has a self-cleavage of 0.13.
Variant U73A A77G U112C has a self-cleavage of 2.77.
A67U C71U U112C A136U gave a self-cleavage of 0.03.
A65G U115A U119C U134C showed a self-cleavage of 0.
A67G A77U U108C showed a self-cleavage of 0.08.
For A69G A107U C120U C146A, the self-cleavage was 0.45.
Variant A65G A69U U81C A140G has a self-cleavage of 0.05.
In the case of U73G A124G U134C, the self-cleavage is reported as 1.48.
Work on A69G U85A A121G yielded a self-cleavage of 0.
Variant A69G U104A U143C has a self-cleavage of 0.33.
For A65G A78G A121G, the self-cleavage was 0.15.
Variant U73A U96C U132C has a self-cleavage of 0.06.
A65G A77G U87A U119G gave a self-cleavage of 0.
A65U U102C U109A showed a self-cleavage of 0.09.
A65U U87A U91C showed a self-cleavage of 0.04.
With G72A U73C A77U A92G A117C the self-cleavage was 0.09.
Work on A67G A78G U81C yielded a self-cleavage of 0.51.
With A65G U104C U132A the self-cleavage was 0.
Variant A65G C98G G127U A140G has a self-cleavage of 0.03.
In the case of A69G U115C A129U U132C, the self-cleavage is reported as 0.88.
A67G A124U A136G showed a self-cleavage of 0.72.
A65U U109A G122A U132A gave a self-cleavage of 0.09.
For A69G U134A A140G, the self-cleavage was 0.08.
Work on C71A C123U A140G A141G yielded a self-cleavage of 0.11.
C66U A69G U115C A136G showed a self-cleavage of 0.05.
With A69G U112C A138G the self-cleavage was 1.53.
Work on C71U G88A C113U yielded a self-cleavage of 0.02.
Variant A69U U104A U143C has a self-cleavage of 0.04.
U73A A94G A129U gave a self-cleavage of 0.18.
For G74A A94G A142G, the self-cleavage was 0.05.
For U73C A107U G137U, the self-cleavage was 2.02.
For A69U A77U A138U, the self-cleavage was 0.04.
A67U U85A U109C A136G gave a self-cleavage of 0.02.
G70U A77U A140G gave a self-cleavage of 0.03.
In the case of A64U U85A U112C A129G C146A, the self-cleavage is reported as 0.05.
In the case of C71U G106U A141G, the self-cleavage is reported as 0.54.
Variant A69C C76U A107G G135A has a self-cleavage of 0.1.
A65U A78U U100C U112C A140G showed a self-cleavage of 0.54.
Work on A69G U96C U130C A142G yielded a self-cleavage of 0.22.
A65U U104A A129U U143C showed a self-cleavage of 0.21.
With C66U A69G U96C the self-cleavage was 0.05.
A69U A121G A140C gave a self-cleavage of 0.07.
Work on A69G C76U A94G yielded a self-cleavage of 0.08.
For A65G U81C C118U, the self-cleavage was 0.
For A69G U87A U102C A121U, the self-cleavage was 0.07.
For A69G C113U U134C, the self-cleavage was 0.36.
With U73C A94U A140G the self-cleavage was 0.49.
With G72U A79U U102C the self-cleavage was 1.31.
For A67G G125A U143A, the self-cleavage was 0.28.
For G75A A77G C113U A136G, the self-cleavage was 0.28.
In the case of G72U A78G A136U, the self-cleavage is reported as 1.27.
Variant A64U U115C C146A has a self-cleavage of 0.61.
For U73C A79G A136G U143A, the self-cleavage was 2.09.
In the case of G72A U87A C120U, the self-cleavage is reported as 0.04.
With U73A A121G A140G the self-cleavage was 1.93.
A65G U85C U91A U100C showed a self-cleavage of 0.
Variant A69U A140G U143C has a self-cleavage of 0.07.
In the case of A69U A79G C118A, the self-cleavage is reported as 0.05.
With A67U U85A G106U the self-cleavage was 0.
In the case of C66U U96C A136G, the self-cleavage is reported as 0.04.
With A64U U108A U119C U134A A138G the self-cleavage was 0.55.
In the case of A65C U81A U108C, the self-cleavage is reported as 0.04.
G75A A117G U132C gave a self-cleavage of 1.94.
Work on C71U G93A A107G U108C yielded a self-cleavage of 0.03.
Variant A67G U81G A129G U143G has a self-cleavage of 0.37.
C71U U102A A141U showed a self-cleavage of 0.15.
U73A A77U U87C A94U U102C U104A A141U showed a self-cleavage of 0.06.
For A67G A69U A136U, the self-cleavage was 0.
A69G U100A A117G A141G showed a self-cleavage of 0.
Work on U73A A94G A107G yielded a self-cleavage of 0.33.
For G72A U112C A136G, the self-cleavage was 1.3.
In the case of A69U C71U U81C A107G U134C, the self-cleavage is reported as 0.
For A65U U104A A117U, the self-cleavage was 0.04.
In the case of U73C A77U A79G U87C C131A, the self-cleavage is reported as 0.
Work on C71U U102C A141G yielded a self-cleavage of 0.5.
For A67G C68U U91C U130C, the self-cleavage was 0.02.
Variant A65G C71U U100A has a self-cleavage of 0.04.
Variant A69U U109C C123U has a self-cleavage of 0.06.
A65G U109A U132C showed a self-cleavage of 0.06.
Variant A67G C128U A136G has a self-cleavage of 0.61.
A67G C116U A117G showed a self-cleavage of 0.
For U73A A78G U85C A107G, the self-cleavage was 0.
For A65G A117U G126U, the self-cleavage was 0.07.
A65G A117U A136U gave a self-cleavage of 0.03.
Variant A67G G72A G82A A129C has a self-cleavage of 0.46.
In the case of U73C U85A U112C, the self-cleavage is reported as 0.11.
A67G C113U U119C showed a self-cleavage of 0.23.
For U73A U85C U102C U115C G127C, the self-cleavage was 0.
In the case of A65G U104A U134C A141G, the self-cleavage is reported as 0.12.
With A65G A124G U130C the self-cleavage was 0.
For G74A U102G U134G, the self-cleavage was 1.36.
Variant U73C U119A A129G has a self-cleavage of 1.36.
A67G U96C U115C A140G gave a self-cleavage of 0.
For A69U U81A U96C G126U, the self-cleavage was 0.03.
For A67U U115C U143C, the self-cleavage was 0.14.
Work on G72A U119C G122A A142G yielded a self-cleavage of 1.29.
U73A A107U A117U showed a self-cleavage of 1.66.
Variant A65C U112C C131U U143C has a self-cleavage of 0.04.
U73C U104C U132C gave a self-cleavage of 1.84.
U73A U96C A138G gave a self-cleavage of 0.24.
Variant A65G U108C A129U U132A has a self-cleavage of 0.04.
With A69G A94G U130C the self-cleavage was 0.
Variant A67U A77G G83A U87C has a self-cleavage of 0.08.
Variant A65C U73A U104A U119C has a self-cleavage of 0.02.
In the case of A67C U102C A142G, the self-cleavage is reported as 0.03.
For A67U A77G U87C, the self-cleavage was 0.53.
In the case of A69G A77G A141G, the self-cleavage is reported as 0.92.
A69G A77G A140U showed a self-cleavage of 0.51.
Work on U73A U81C A94G A117U A124U A129G U143C yielded a self-cleavage of 0.
A67C U73C U104A showed a self-cleavage of 0.
A65G A67G U143C gave a self-cleavage of 0.19.
With A65U U100A C118U U143C the self-cleavage was 0.06.
With A65G A92G A141G the self-cleavage was 0.12.
Variant A67G A79G U102C U108A has a self-cleavage of 0.
For C68U U96C A140C, the self-cleavage was 0.01.
In the case of A67U A78G U108C, the self-cleavage is reported as 0.08.
Work on G75A C113U A117U yielded a self-cleavage of 0.61.
For A69U U112C U115A, the self-cleavage was 0.08.
Work on G72A U96C U134C yielded a self-cleavage of 0.05.
For A67U U87C A136G, the self-cleavage was 0.23.
A65G U134C A136G showed a self-cleavage of 0.07.
For A64U U73C U132A, the self-cleavage was 0.72.
For A67U U87A U91A U143A, the self-cleavage was 0.57.
A67G U91A U112C gave a self-cleavage of 0.
Work on A67U A92G C116U U130C yielded a self-cleavage of 0.
G74U U130C U143A showed a self-cleavage of 1.97.
With A65G C113U U119C A136U the self-cleavage was 0.
With U73C A124G A129G the self-cleavage was 0.66.
With U73A A129G A138U the self-cleavage was 1.7.
With A65U U115A A140G the self-cleavage was 0.14.
A64U U81G A140G showed a self-cleavage of 0.12.
In the case of A67G U104A A136U, the self-cleavage is reported as 0.53.
U73C G86A U143G showed a self-cleavage of 0.11.
In the case of A65G A129G U132C, the self-cleavage is reported as 0.77.
Work on A67C A78G A136G yielded a self-cleavage of 0.14.
For A65G A79U U108C, the self-cleavage was 0.14.
Variant A64U U119A U143A has a self-cleavage of 0.56.
U73A A78U U81A showed a self-cleavage of 2.68.
Variant A69U U85A U119C has a self-cleavage of 0.74.
Work on A69U U73C A92U A107G U132C yielded a self-cleavage of 0.19.
With A65U C90A C99A A136U A138G the self-cleavage was 0.02.
Work on U73A A117G U119C yielded a self-cleavage of 0.37.
With G74A G82A A124U the self-cleavage was 1.99.
With U73A G89A G106A U112C A138G the self-cleavage was 0.02.
Work on C66U A77G U87A yielded a self-cleavage of 0.04.
Variant G72A U112C U119A has a self-cleavage of 1.05.
In the case of G72A U87C U102C U108C A138G, the self-cleavage is reported as 0.32.
With G72A A78G U96A the self-cleavage was 0.03.
For A67G C133A G144A, the self-cleavage was 0.77.
With A67U U85G A141G the self-cleavage was 0.05.
With A69U U81C U115A the self-cleavage was 0.
